# Source: PubChem BioAssay AID1347073 (National Center for Advancing Translational Sciences (NCATS), 2019)
# The campaign covered roughly 45,000 compounds. About 200 (0.44%) were called active. Roughly 7% stayed inconclusive and do not appear here. Calls come from the whole dose curve; as a rule, active = well fitted activation curve with a large enough effect; inconclusive = small, poorly fitted or top-dose-only effect; inactive = no such curve, though single readings can be large or run the other way. This is one part of the list.
# Assay: qHTS of TDP-43 Inhibitors: NCGC Sytravon Library Screen; note: nearly all actives have a fitted effect of over 55% in size; for growth rescue (activation): 0% is about no effect
# Conditions: yeast TDP-43 toxicity rescue, BacTiter-Glo growth, 24 h; series mostly up to 46.1 µM; growth rescue (activation): at the top concentration
# In short: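 TDP-43-expressing yeast, pregrown in raffinose, seeded at OD600 0.02 in galactose medium with compound for 24 hr at 30 deg C. Growth read by BacTiter-Glo luminescence, so rescue of toxicity appears as activation.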
# Potency is the fitted concentration of half-maximal effect.
Compound,growth rescue (activation),Potency
COc1cc(/C=C(/C(=O)O)c2ccc(-c3ccccc3)cc2)cc(OC)c1OC,inactive: 20.7%,
S=c1[nH]c2cc(Cl)c3cccnc3c2o1,inactive: 9.34%,
CCCCOCC1CC(CC#CCN2CCCCC2)C(=O)O1 (configuration not stated),inactive: 1.1%,
Nc1c(N2CCCC2)c2ccccc2oc1=O,inactive: 0.355%,
CC(OC(=O)c1c(F)cccc1F)C(=O)NCCC1=CCCCC1 (configuration not stated),inactive: 9.01%,
Cc1cc(-c2csc(N)n2)c(C)n1Cc1ccco1,inactive: -2.88%,
COc1ccc(NC(=O)c2ccc(-c3c(C)noc3C)c3ccoc23)cn1,inactive: 21.2%,
COc1cccc(Nc2nc(C(N)CC(C)C)cs2)n1 (configuration not stated),inactive: -2.68%,
Cc1ccc(NS(=O)(=O)c2ccc3[nH]c(=O)c(=O)[nH]c3c2)cc1Cl,inactive: 2.58%,
COc1ccc(CCNC(=O)COC(=O)c2cc(=O)[nH]c3ccccc23)cc1,inactive: 12.3%,
COc1ccc(CN=C(NS(=O)(=O)c2cccs2)SC)cc1,inactive: 31%,
COc1cc(C(=O)Nc2cc(-c3nc4cc(C)ccc4o3)ccc2C)cc(OC)c1OC,inactive: 20.9%,
CCN(CC)CCN(C(=O)Cn1nnc(-c2ccc(C)o2)n1)C(C(=O)NC(C)(C)C)c1cccs1 (configuration not stated),inactive: 5.7%,
CC1(C)CC(=O)C(c2c[nH]c3ccccc23)C(=O)C1,inactive: 9.77%,
Nc1c(-c2nc(-c3ccncc3)no2)nnn1CC(=O)Nc1ccccc1,inactive: 8.09%,
COc1cc(NS(=O)(=O)c2cc(C(=O)N3CCN(C(C)=O)CC3)ccc2OC)cc(OC)c1,inactive: 8.49%,
FC(F)(F)c1cc(-c2ccccc2)nc2nc(N3CCOCC3)sc12,inactive: 3.25%,
O=C(CCN1CCCCC1)N/N=C/c1c[nH]c2ccccc12,inactive: 13.8%,
COc1ccccc1/C=C/C=N/NC(=O)c1ccco1,inactive: 12.7%,
Cc1ccc(CN2CCSc3ccc(C(=O)NCc4ccco4)cc32)cc1,inactive: 8.18%,
CCOC(=O)/C=C/C(=O)Nc1cc(S(=O)(=O)Nc2ccc(OC)cc2)ccc1N1CCOCC1,inactive: 29%,
Cn1c(SCC(=O)Nc2ccc3nc(SCC(=O)NC4CC4)sc3c2)nnc1-c1ccccc1,inactive: 22.5%,

Compound,growth rescue (activation),Potency
O=C(N/N=C/c1ccc(OCC(=O)N2CCCCC2)cc1)c1ccccc1O,inactive: 5.29%,
COc1ccc(/C=C/C(=O)NCCOc2ccc(C)cc2)cc1,inactive: 40.2%,
CCc1ccc(NCc2cccn2-c2nnc(N3CCCCCC3)s2)cc1,inactive: -5.33%,
Cc1cccc(OCC(O)CN2CCN(CCN3C(=O)c4cccc5cccc(c45)C3=O)CC2)c1C (configuration not stated),inactive: -4.59%,
COc1ccc(C(=O)NC(=S)N2CC(C)OC(C)C2)cc1OC (configuration not stated),inactive: 4.3%,
O=C(COC(=O)c1ccc(F)c(S(=O)(=O)N2CCOCC2)c1)c1ccc(Br)cc1,inactive: 21.5%,
CC1=C(C(=O)OCC2CCCO2)C(c2ccc(C)o2)C2=C(CC(c3ccc(F)cc3)CC2=O)N1 (configuration not stated),inactive: 22.1%,
COc1ccc(C(CNC(=O)Cc2cccs2)N(C)C)cc1 (configuration not stated),inactive: 4.93%,
O=C(c1ccco1)N1CCc2ccccc21,inactive: 17.3%,
Cc1ccccc1NC(=O)CSc1nc2[nH]c(=O)cc(O)c2s1,inactive: 11.3%,
COc1ccc(N/C=C/C(=C(C#N)C#N)N(C)C)cc1,inactive: -6.98%,
O=C1c2cc(F)ccc2-n2c1nc1ccccc1c2=O,inactive: 7.63%,
Cc1ccc(C)c(CN2C(=O)c3ccccc3S(=O)(=O)c3ccc(C(=O)N4CCN(c5ccccn5)CC4)cc32)c1,inactive: 8.11%,
CC(=O)Nc1ccc(NC(=O)C(C)OC(=O)[C@@H]2CCCN2C(=O)c2cccs2)cc1 (some centres not stated),inactive: 7.04%,
COC(=O)c1ccccc1NC(=S)N(Cc1ccc2c(c1)OCO2)Cc1cc2cc(C)ccc2[nH]c1=O,inactive: 18.4%,
CCCC(=O)Nc1ccc(C(=O)NCc2ccccn2)cc1,inactive: 2.02%,
N=c1c2c3c(sc2ncn1N)CCCC3,inactive: 17%,
O=C(COc1ccccc1)NC(=S)Nc1cccc(NC(=O)c2ccccc2Cl)c1,inactive: -5.01%,
COC(=O)c1c(NC(=O)c2ccccc2F)sc(C(=O)N2CCOCC2)c1C,inactive: 6.8%,
COc1cc(/C=C/C(=O)NC(C)CCc2ccccc2)cc(OC)c1OC (configuration not stated),inactive: -23.3%,
O=[N+]([O-])c1ccc2c(c1)nc1n2CCCCC1,inactive: 12%,
CC1(C(=O)NS(=O)(=O)c2ccccc2)CCN1C(=O)COc1ccc(Cl)cc1 (configuration not stated),inactive: 0.665%,

Compound,growth rescue (activation),Potency
CCc1cc(C(=O)N2CCCC(CCC(=O)NCc3cccc(OC)c3)C2)no1 (configuration not stated),inactive: 5.33%,
N#CCC(=O)N/N=C/c1cccc(Oc2ccccc2)c1,inactive: 14.7%,
CCn1ccnc1CN(C)Cc1nc(CCC(C)C)no1,inactive: 8.55%,
Cc1cccc(NC(=O)CCCCCN2C(=O)c3ccccc3C2=O)n1,inactive: 8.96%,
COc1ccc(NC(=O)C2C3CCC(O3)C2C(=O)O)c(C)c1 (configuration not stated),inactive: -1.39%,
O=C(CSc1nc2ccccc2[nH]1)c1c[nH]c2ccccc12,inactive: -18.7%,
CC1(C(=O)NS(=O)(=O)c2cccc(Cl)c2)CCN1C(=O)CCc1ccc(Cl)cc1Cl (configuration not stated),inactive: 12.9%,
CC(NC(=O)C1CCN(S(=O)(=O)c2cccc3nonc23)CC1)c1ccccc1 (configuration not stated),inactive: 8.37%,
CCOc1ccccc1C(=O)N[C@H](C(=O)OCC(=O)Nc1nnc(-c2ccccc2)o1)C(C)C,inactive: 5.4%,
CN(C(=O)COC(=O)c1cnc(Cl)c(Cl)c1)C1CCCCC1,inactive: 15.4%,
COc1cc(SC)ccc1C(=O)Nc1ccc(C)cc1C,inactive: 25.5%,
O=[N+]([O-])c1ccc(NCCCN2CCOCC2)c([N+](=O)[O-])c1,inactive: -2.08%,
COc1ccc(NC(=O)COc2ccc(/C=C/c3cccc[n+]3C)cc2OC)cc1,inactive: -11.4%,
CCc1ccccc1NS(=O)(=O)c1ccc2c(c1)NC(=O)CC(=O)N2,inactive: 8.93%,
O=C(N/N=C\C=C\c1ccc([N+](=O)[O-])o1)c1cccs1,inactive: 24.1%,
CCOc1ccc(NC(=O)CSc2nnc(C)n2C2CC2)cc1S(=O)(=O)N1CCCC1,inactive: 25.8%,
O=C(C1=NN[C@@H]2C(=O)N(c3cccc(F)c3)C(=O)[C@H]12)c1ccc2ccccc2n1,inactive: 21.9%,
NS(=O)(=O)c1ccc(CCNC(=O)CN2CCN(S(=O)(=O)c3ccccc3F)CC2)cc1,inactive: -2.09%,
O=C(CN1C2CCCC1CC(NC(=O)c1ccccc1)C2)Nc1ccccc1C(F)(F)F (configuration not stated),inactive: -10%,
COc1cc(/C=N/n2nnnc2N)ccc1OCc1c(C)no[n+]1[O-],inactive: 23.6%,
O=C(COC(=O)CCN1C(=O)/C(=C\C=C\c2ccccc2)SC1=S)Nc1ccc(Br)cc1,inactive: 4.31%,
CC(=C\c1ccco1)/C=C1/SC(=S)N(CC(=O)O)C1=O,inactive: 0.0647%,

Compound,growth rescue (activation),Potency
Cc1cc(C)n2nc(SCC(=O)Nc3ccccc3C)nc2n1,inactive: -2.81%,
CCCCc1nc2cc(C(=O)N3CCCCC3CC(=O)OCC)ccc2o1 (configuration not stated),inactive: 19.6%,
O=C(O)/C=C/C(=O)Nc1ccc(OC(F)(F)Cl)cc1,inactive: 0.0154%,
CCC(=O)Nc1nc(C)c(-c2csc(Nc3ccc(C(=O)O)cc3)n2)s1,inactive: 5.8%,
CCN=c1scc(C)n1/N=C/c1ccsc1,inactive: 32.1%,
Cc1cc(-c2csc(NC(=O)c3ccc(C#N)cc3)n2)c(C)n1Cc1ccccc1,inactive: -7.46%,
CCOC(=O)c1c(C)[nH]c(C(=O)CSc2nc(C)cc(C)n2)c1C,inactive: 15.7%,
Cc1cccc(C)c1OCC(=O)Nc1ccc(S(=O)(=O)Nc2ccccn2)cc1,inactive: 13.4%,
ClCc1ncc(-c2ccc(Cl)cc2)o1,inactive: 12.6%,
O=C(NCCc1nc2ccccc2[nH]1)/C(=C/c1ccco1)NC(=O)c1ccc(Br)o1,inactive: 6.81%,
COc1cccc(/C=C2\SC(=S)N(C(Cc3ccccc3)C(=O)O)C2=O)c1 (configuration not stated),inactive: 9.94%,
Nc1nc(CSc2nc3ccccc3s2)nc(N2CCOCC2)n1,inactive: 6.92%,
COc1ccc(S(=O)(=O)NC(C(=O)OCC(=O)Nc2ccc(N3CCOCC3)cc2)C(C)C)cc1 (configuration not stated),inactive: 17.5%,
C(=N\n1cnnc1)/c1ccc(-c2ccccc2)cc1,,active: 11.2 µM
CC(=O)c1ccc(N2CCN(C(=O)Cc3cccs3)CC2)cc1,inactive: 10.8%,
CC1CCN(c2nc(N3CCCCC3)nc(N3CCCCC3)n2)CC1,inactive: -2.61%,
Cc1ccc(NC(=O)c2ccoc2C)cc1C,inactive: 2.3%,
Cc1cc(C(=O)COc2ccc(F)cc2Br)c(C)n1C,inactive: 23.9%,
COc1ccc(C=NNC(=O)c2ccccc2OCc2ccc(F)cc2)c(OC)c1,inactive: 17.7%,
NC(=O)c1cc(NC(=O)COC(=O)CCCN2C(=O)c3cccc4cccc(c34)C2=O)cc(C(N)=O)c1,inactive: -25.4%,
Cc1cc(NC(=O)CSc2nnc(C)n2C)no1,inactive: 6.37%,
COc1ccccc1N1C(=O)Cc2ccccc2C1=O,inactive: -12.2%,

Compound,growth rescue (activation),Potency
CCN(CC)S(=O)(=O)c1cccc(C(=O)OC2CCOC2=O)c1 (configuration not stated),inactive: -19.4%,
O=C(N/C(=C\c1ccc([N+](=O)[O-])cc1)C(=O)N1CCCCC1)c1ccccc1,inactive: 2.02%,
CC(=O)Nc1ccc(Nc2cc(N3CCOCC3)c3nonc3c2[N+](=O)[O-])cc1,inactive: -33.6%,
CC(NS(=O)(=O)c1ccccc1)c1n[nH]c(=S)n1-c1ccccc1 (configuration not stated),inactive: -7.64%,
CCCc1cc(=O)[nH]c(SCC(=O)NCc2ccc3c(c2)OCO3)n1,inactive: 8.35%,
CC1(C(=O)Nc2cccnc2)Cc2c(-c3cccc(C(F)(F)F)c3)ccnc2O1 (configuration not stated),inactive: 5.66%,
CCCc1cc(=O)[nH]c(SCC(=O)N2C(C)CCCC2C)n1 (configuration not stated),inactive: 14.8%,
COc1ccccc1/C=C/C=N/NC(=O)CCn1cnc2ccccc21,inactive: -11.5%,
O=C(NCC1CCCCC1)c1cccnc1Cl,inactive: -3.98%,
CCn1c(COc2cccc3cccnc23)nnc1SC(F)F,inactive: -25.4%,
O=S(=O)(Nc1cccc(S(=O)(=O)N2CCOCC2)c1)c1cccs1,inactive: 7.07%,
O=C1NC2(CCSC2)C(=O)N1CC(=O)N(Cc1ccccc1)C1CCS(=O)(=O)C1 (configuration not stated),inactive: 4.85%,
O=C(COC(=O)Cn1nnc(-c2ccccc2)n1)Nc1ccccc1Br,inactive: 8.98%,
O=C(Nc1cccc(S(=O)(=O)Nc2ccc(SC(F)F)cc2)c1)C1CCC1,inactive: 14.4%,
O=C(CSc1nnc(SCc2ccccc2Cl)s1)N/N=C/c1c[nH]c2ccccc12,inactive: 10.7%,
CCNS(=O)(=O)c1ccc(CCC(N)=O)cc1,inactive: -21.2%,
N#Cc1sc2nc(C3CC3)cc(-c3ccc(Cl)cc3)c2c1N,inactive: 10.5%,
Cc1ccc2nc(Cl)c(C3CC(c4ccco4)=NN3C(=O)CCCC(=O)O)cc2c1 (configuration not stated),inactive: -72.8%,
COc1ccc(CN2CCCC(CNC(=O)c3ccc(F)cc3)C2)c(F)c1 (configuration not stated),inactive: 2.01%,
